Data as given in PubChem BioAssay AID1963576 (National Center for Advancing Translational Sciences (NCATS), 2024).
Out of some 46,000 compounds screened, about 60 (0.1%) were called active. Another 3% or so got no clear call; they are omitted. The call rests on the fitted dose curve; in most records, active means well fitted inhibition curve with a large enough effect; inconclusive means small, poorly fitted or top-dose-only effect; inactive means no such curve, though single readings can be large or run the other way. Some of the results follow.

Assay: Primary qHTS assay for Inhibitors of ovarian cancer metastasis using an organotypic tumor microenvironment (TME) model. Further: nearly all actives have a fitted effect of over 65% in size.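 On activity change, negative = inhibition: plate controls were DMSO wells for no effect and tomatine positive control wells for full effect.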
Conditions: SKOV3ip1-GFP adhesion/invasion on 3D omental model, fluorescence; series mostly up to 45.8 µM; activity change, negative = inhibition: at the top concentration
How it was run: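 A 3D layer of primary human omental fibroblasts, mesothelial cells, fibronectin and collagen I, grown 48 hr, received SKOV3ip1-GFP cells in serum-free medium plus compounds at 0.36-46 umol/L. After 2 hr RT and 16 hr 37 C, fixed adherent GFP cells were counted; normalized to DMSO and tomatine.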

Activity change, negative = inhibition, inactive:
COc1ccc(N2CCN(C(CNC(=O)CC(C)C)c3ccc4c(c3)OCO4)CC2)cc1 (stereo not given) 10.5%, CCc1cccc(CC)c1NC(=O)Cn1nnc2sc(-c3ccccc3)cc2c1=O -21.8%, Cc1ccc(/C=C/c2onc(C)c2S(=O)(=O)N2CCC(C(=O)N3CC(C)Oc4ccccc43)CC2)cc1 (stereo not given) -15.7%, Cc1c(Cl)cccc1-n1ncc(C(=O)N2CCc3ccccc3C2)c1C1CCN(C(=O)OC(C)(C)C)CC1 -7.9%, COc1ccc(OCC(=O)Nc2ccc(C(=O)OCc3cc(=O)n4nc(C)sc4n3)cc2)cc1 -9.26%, CC(=O)N1CCC(N(C(=O)Nc2ccc(C)c(F)c2)C(C)C)CC1 -1.76%, COc1cc(Cl)c(NS(=O)(=O)c2ccc3c(c2)CC(C)N3C(=O)C2CCC2)c(OC)c1 (stereo not given) -1.16%, Cc1ccc(C(Nc2ccccn2)c2ccc3cccnc3c2O)cc1 (stereo not given) -28%, COc1ccccc1NC(=O)CCS(=O)(=O)c1ccc2nc(C)sc2c1 -8.41%, CCc1ccc(NC(=O)CC2C(=O)N(c3cccc(OC)c3)C(=O)N2Cc2ccco2)cc1 (stereo not given) 22.1%, Cc1ccc(NC(=O)c2oc3ccccc3c2NC(=O)Cc2cccs2)cc1 4.74%, CCn1c(C(=O)N2CCCC(C(=O)NCCCOC)C2)cc2sccc21 (stereo not given) -0.88%, Cc1ccccc1NC(=O)c1c(NC(=O)C(C)Oc2cccc(Cl)c2)sc2c1CCCC2 (stereo not given) -0.134%, CCc1c(C)sc2c1CCN(C(=O)Nc1ccccc1C(F)(F)F)C2c1ccccc1 (stereo not given) 4.12%, O=C(c1nc(-c2ccc(Cl)cc2)n2c1CCCCC2)N1CCN(c2ccccc2F)CC1 5.34%, Cc1oc2c(c1C(=O)Nc1cccc(Br)c1)C1=NCCN1C=N2 3.82%, COc1cc(NC(=O)c2c(-c3ccc(C)cc3)nnc3ccccc23)cc(OC)c1OC 0.236%, O=C(Cn1nc(-c2ccccc2)ccc1=O)NCc1ccc(F)cc1Cl -13.7%, COc1ccccc1Nc1nn2c(=O)c3ccc(C(=O)N4CCC(C)CC4)cc3nc2s1 -7.53%, COc1ccccc1CNC(=O)CC1N=C2c3ccccc3N=C(SCC(=O)Nc3ccc(F)cc3)N2C1=O (stereo not given) 2.96%, Cc1ccc(NC(=O)c2cc(C)nn2-c2ccccc2)cc1 -17.6%, Cc1nc2scc(C)n2c(=O)c1S(=O)(=O)NCc1ccccc1Cl 2.93%, CC(=O)Nc1ccc(NC(=O)CCCc2nc(-c3ccc(C(C)(C)C)cc3)no2)cc1 -7.01%, CC(=O)c1ccc(N2C(=O)N(Cc3cccc(C(F)(F)F)c3)c3ccccc3S2(=O)=O)cc1 -7.42%, O=C(CSc1nc(-c2ccc(F)cc2)cc(C(F)(F)F)n1)NCc1ccccc1 -8.12%, COc1cc(C2C(=O)N(C3CCCCC3)CC(=O)N2C2CCCC2)ccc1OC(C)C (stereo not given) 3.96%, COc1ccc(OCC(=O)NCC2(N3CCN(C)CC3)CCCCC2)cc1 0.343%, CC(C)(C)OC(=O)N1CCC(c2c(C(=O)NC3CCN(Cc4ccccc4)CC3)cnn2-c2cccc(F)c2)CC1 -3.36%, CCOC(=O)c1ccc2c(c1)N(Cc1cccc(OC)c1)C(=O)c1ccccc1S2(=O)=O 3.34%, O=[N+]([O-])c1cc(-c2nc(-c3ccccc3)no2)ccc1NCC1CCCO1 (stereo not given) 5.1%, Cc1ccc2ncc(C(=O)NCc3ccccc3Cl)c(=O)n2c1 1.27%, CCC(CC)C(=O)Nc1ccc(OCc2cc(=O)n3ccsc3n2)cc1 -0.615%, CN(C)Cc1cccc(N=C(c2ccccc2)c2c(O)[nH]c3cc(C(=O)N(C)C)ccc23)c1 14.3%, Cc1ccc(-c2cc(C(=O)NC(C)c3ccccc3)c3ccccc3n2)cc1C (stereo not given) 3.72%, CC1CCN(c2ccc(NC(=O)c3cccc(Cl)c3)cc2C(=O)O)CC1 -4.13%, CCOc1cccc2sc(N(Cc3cccnc3)C(=O)C3CCCCC3)nc12 5.67%, Cc1ccc(NC(=O)CSCc2cnn(-c3ccccc3)c2-n2cccc2)c(C)c1 -36.3%, CCc1ccccc1NC(=O)c1ccc(F)c(S(=O)(=O)NC2CCCCCC2)c1 -3.22%, COc1ccc(NC(=O)CSc2nc3ncccc3[nH]2)c(OC)c1 10.4%, Cc1cc(OC(C)C(=O)N(Cc2ccco2)Cc2ccccc2F)cc(C)c1Cl (stereo not given) -0.571%, O=C(CCCCn1c(=O)c2ccccc2n(Cc2ccc(Cl)cc2)c1=O)NCc1ccccc1Cl 6.15%, Cc1ccc(CCNC(=O)C2CCN(c3nnc(C)c4c(C)n(-c5ccccc5)nc34)CC2)cc1 -13.5%, COc1ccc(-c2cc(C(=O)Oc3cccc(C)c3)c3ccccc3n2)cc1 1.31%, CCC(=O)N1CCc2cc(Br)cc(S(=O)(=O)N3CCN(c4ccc(C(C)=O)cc4)CC3)c21 6.67%, CN1CCN(C(c2ccccc2Cl)c2sc3nc(-c4ccco4)nn3c2O)CC1 (stereo not given) -6.68%, Cc1ccc(C)c(N2CCN(CCCNC(=O)C3COc4ccccc4C3)CC2)c1 (stereo not given) -24.4%, N#C/C(=C\c1ccc(-c2ccccc2C(=O)O)o1)c1nc2ccccc2[nH]1 -16.4%, CC(C)C[C@@H](N)[C@H](O)C(=O)N[C@H](C(=O)N[C@H](C(=O)N[C@@H](CC(=O)O)C(=O)O)C(C)C)C(C)C -5.02%, Cc1cc(C)n(CC(=O)Nc2ccc(F)c(F)c2)c(=O)c1C#N 1.23%, COc1ccc(-n2nc(C(=O)NCCc3ccc(Cl)cc3)c3c4ccccc4n(C)c3c2=O)cc1Cl -1.09%, O=C(Cn1c(=O)n(Cc2ccco2)c(=O)c2ccc(C(=O)NC3CCCC3)cc21)Nc1ccc(F)cc1 2.03%, CCN(CC)C(=O)C1=C(C)Nc2nc3ccccc3n2C1c1ccc(Br)cc1 (stereo not given) 0.308%, CCOC(=O)c1c(NC(C)=O)c2c3c(sc2n1Cc1nc(-c2ccc(Cl)cc2)oc1C)CCCC3 -4.89%, COc1ccc(C)cc1NC(=O)C(=O)NCCc1sc(-c2ccc(Cl)cc2)nc1C -5.86%, CC(C)Oc1cccc(NC(=O)C2CCN(S(=O)(=O)Cc3ccccc3)CC2)c1 -9.4%, O=S(=O)(Nc1cccc(Cl)c1)c1ccc2[nH]c3c(c2c1)CCCCCC3 -0.166%, CCc1ccc(CNC(=O)c2ccc(CSc3nc4ccncc4n3Cc3ccc(OC)cc3)cc2)cc1 7.14%, O=C(CSc1nnc(COc2ccc(Cl)cc2)o1)Nc1ccccc1 0.332%, Cc1ccccc1-c1nnc(CN2CCN(c3cc(Cl)ccc3C)CC2)o1 -6.02%, Cc1nc(N2CCCC2)c2c(C(=O)Nc3ccc(C)c(Cl)c3)c(C)oc2n1 -0.31%, CCOc1ccccc1C1N=C(N)Nc2nc3ccccc3n21 (stereo not given) -14.9%, CCC(CC)C(=O)Nc1cc(-c2cn3cccnc3n2)ccc1OC 6.62%, CCOC(=O)N1CCC(NC(=O)c2ccc3c(c2)N(Cc2cccc(C)c2)C(=O)c2ccccc2S3(=O)=O)CC1 -6.01%, COc1ccc(C(CC(=O)Nc2ccc(C)cn2)N2Cc3ccccc3C2=O)cc1OC (stereo not given) 23.5%, CCC(=O)N1CCc2cc(Br)cc(S(=O)(=O)CCC(=O)Nc3cccc(CC)c3)c21 -6.34%, Cc1cccc(N2C(=O)C(CC(=O)Nc3cccc(F)c3)N(Cc3cccs3)C2=O)c1 (stereo not given) 12.5%, O=S(=O)(c1ccc(F)cc1)N1CCC(Oc2ccc(-n3cnnn3)cc2)CC1 -6.24%

outcome, inactive:
CCCCCn1c(=O)[nH]c2cc(C(=O)N3CCN(c4ccccc4)CC3)ccc2c1=O, CCOc1ccccc1N(CC)C(=O)Nc1cn(C)c(=O)c2ccccc12, CCOc1ccccc1NC(=O)Nc1nnc(N(C)Cc2ccccc2)s1, COc1ccc2c(c1)cc1c(=O)n(CC(=O)NC3CCCCC3)nc(C)n12, O=C(CCn1cnc2onc(-c3ccc(F)cc3)c2c1=O)N1CCN(c2ccc(F)cc2)CC1, COc1cc(Cl)c(C)cc1NC(=O)CCc1c(C)nc2cc(-c3cccc(F)c3)nn2c1C, COc1ccc(S(=O)(=O)Nc2cccc(-c3ccc(N4CCOCC4)nn3)c2)cc1F, CCOc1cc(C(=O)Nc2ccc3oc(-c4ccc(F)cc4Cl)nc3c2)cc(OCC)c1OCC, CC1=C(C(=O)OC2CCCC2)C(c2ccc(F)cc2F)CC(=O)N1 (stereo not given), CCCCNC(=O)CCC(=O)NNc1nc2ccccc2c2nc(-c3ccccc3)nn12, CC(=O)Nc1ccccc1-c1nc2ccccc2n(CC(=O)c2ccc(C)c(C)c2)c1=O, CCCS(=O)(=O)c1ncc(Cl)c(C(=O)N2CCN(c3ccc(OC)cc3)CC2)n1, COc1ccc(NC(=O)C2CCCN(C(=O)c3cnn(-c4ccc(F)cc4)c3-n3cccc3)C2)cc1 (stereo not given), Cn1c(=O)cc(OCC(=O)N2CCN(c3ccccc3)CC2)c2ccccc21, COc1ccc(C)cc1NCc1nnc2n1CCCCC2, Cc1cccc(NC(=O)c2ccc(C(=O)Nc3cccc(C)c3C)cc2)c1C, COc1ccc(CCNC(=O)c2c(O)nc3cc(C)ccn3c2=O)cc1OC, O=C(Cn1nc2c(cc1=O)CCCC2)Nc1ccc(F)cc1F, CC(=O)c1cccc(NC(=O)CCS(=O)(=O)c2cc3c(cc2C)NC(=O)CO3)c1, CCc1noc(-c2ccc(NC(C)c3ccccc3)c([N+](=O)[O-])c2)n1 (stereo not given), CCOc1ccc(C(=O)Nc2c(C(=O)c3ccccc3)oc3ccccc23)cc1, CCOC(=O)c1c(S(=O)(=O)N2CCC(C(=O)N3CCN(c4cccc(C)c4C)CC3)CC2)c(C)n(C)c1C, COC(=O)c1c(C)oc2ccc(N(C(=O)c3ccncc3)S(=O)(=O)c3cc(C)c(C)cc3C)cc12, COc1cccc(CNC(=O)Cn2c(=O)oc3cc(S(=O)(=O)N4CCCC4)ccc32)c1, Cc1ccc(-c2ccc(=O)n(Cc3ccc(F)cc3)n2)cc1, Cc1ccc(Nc2cc(C)nc3nc(Cc4ccc(Cl)cc4)nn23)cc1, COc1cccc(CNC(=O)c2nnn(CC(=O)Nc3cc(Cl)ccc3C)c2N)c1, Cc1nc2cccnc2n1C1CCN(S(=O)(=O)c2ccc(Cl)cc2)CC1
